Source: the supplement of paper PMC4166925
± gives the standard deviation of the averaged measurements. Whole data set: some 33,000 sequences, median “E-score (dimensionless, -0.5 to 0.5)” near -0.046, cut for the highest 2% near 0.36. The list shows a part of the results.

test system: T1, SpTbr T-box DNA-binding domain (GST fusion); assay: PBM E-score of 8-mer (E-score (dimensionless, -0.5 to 0.5)); Tbr is Tbrain of the sea star Patiria miniata (Pm) or the sea urchin Strongylocentrotus purpuratus (Sp); higher = stronger binding preference; most listed sequences are background and not binding sites; details: the construct has about 5 more residues each side
T1 sequence: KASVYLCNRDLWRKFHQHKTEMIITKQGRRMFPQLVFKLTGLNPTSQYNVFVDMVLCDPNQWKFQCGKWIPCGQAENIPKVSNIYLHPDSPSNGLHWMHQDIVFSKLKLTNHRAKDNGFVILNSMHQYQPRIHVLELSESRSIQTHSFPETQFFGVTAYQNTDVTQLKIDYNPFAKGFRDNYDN
Description: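 Universal protein-binding microarray (Agilent AMADID 016060, 60-bp probes with a 35-bp variable region) incubated with 200 nM GST-fused Strongylocentrotus purpuratus Tbr T-box DNA-binding domain (residues 362-554) in PBS pH 7.5. Scored for every ungapped 8-mer (given with its reverse complement) as E-score (range -0.5 to 0.5; >0.45 counts as bound) and Z-score of median probe intensity. Two replicate arrays (datasets 1 and 2).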
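Note: protein at 200 nM in PBS on universal double-stranded arrays.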

Row | Sequence | PBM E-score of 8-mer
1 | CATAGTTA | -0.0119 ± 0.048
2 | ACTTCGCT | 0.00782 ± 0.026
3 | AGCGTGGC | 0.0797 ± 0.084
4 | CTGTCGGC | 0.208 ± 0.04
5 | CCAGCTGC | -0.075 ± 0.11
6 | GATTTGAC | 0.103 ± 0.04
7 | AATCTATG | -0.223 ± 0.062
8 | CGATCCCG | -0.0498 ± 0.05
9 | TATGGTGA | 0.1265 ± 0.00047
10 | GAGGGGCC | -0.213 ± 0.029
11 | CTCCGCCA | 0.046 ± 0.039
12 | CCTTACAA | -0.026 ± 0.032
13 | AGTAGTAG | -0.0724 ± 0.017
14 | AATATACT | -0.284 ± 0.14
15 | ACTTGCCC | 0.0174 ± 0.014
16 | GCTCAGCC | -0.19 ± 0.043
17 | GGGACCAA | -0.0735 ± 0.15
18 | CAAACTAA | -0.163 ± 0.04
19 | AAGGATTC | -0.18 ± 0.067
20 | ACCTTCCC | -0.0803 ± 0.011
21 | CTAGCACC | 0.415 ± 0.014
22 | GACTGGTA | 0.0027 ± 0.036

Row | Sequence | PBM E-score of 8-mer
23 | AGCACTTG | 0.168 ± 0.018
24 | AAACGCAG | -0.0888 ± 0.067
25 | AAGTTCAG | -0.223 ± 0.036
26 | CGCTGACC | -0.0598 ± 0.079
27 | AGTTAAGA | -0.17 ± 0.025
28 | GACCATAC | -0.206 ± 0.012
29 | GGCGACCC | 0.111 ± 0.043
30 | CGTATTGC | -0.144 ± 0.048
31 | ACGTTGGC | 0.189 ± 0.0034
32 | GGGGTTAC | -0.202 ± 0.012
33 | CTTGGACC | -0.253 ± 0.015
34 | CGGGAATA | -0.0588 ± 0.042
35 | AGCAGAAC | -0.263 ± 0.055
36 | CTATGTGC | 0.116 ± 0.028
37 | CGGGCGAC | 0.153 ± 0.015
38 | AGTCGTGA | 0.262 ± 0.0032
39 | CCGGTCTC | -0.163 ± 0.054
40 | AGCATGCG | -0.0367 ± 0.068
41 | ACTAGAGA | -0.268 ± 0.15
42 | AGTACTCA | -0.105 ± 0.04
43 | GTACCGGA | -0.239 ± 0.011
44 | GGGGGTTA | -0.156 ± 0.038

Row | Sequence | PBM E-score of 8-mer
45 | CCGGGATA | -0.146 ± 0.014
46 | CGCCGTCC | -0.146 ± 0.077
47 | GCGCGCAA | 0.213 ± 0.029
48 | CTACTATA | -0.32 ± 0.021
49 | ACAAGGAA | -0.183 ± 0.04
50 | ACAATCCC | 0.0605 ± 0.02
51 | AAGTTGGT | -0.0114 ± 0.097
52 | CAAGTGTA | 0.249 ± 0.051
53 | AAGATGGG | 0.0523 ± 0.063
54 | CGTTCTAA | -0.125 ± 0.0024
55 | GCCGTCGA | -0.0165 ± 0.011
56 | TCACCCAA | 0.0846 ± 0.028
57 | CAACCACC | -0.0489 ± 0.062
58 | GGCTCCCA | -0.0523 ± 0.044
59 | ATTGCCGC | 0.0762 ± 0.043
60 | ATGGAGGG | -0.0404 ± 0.12
61 | AGTCCATG | 0.00336 ± 0.0095
62 | ACCTGAAC | -0.0151 ± 0.0025
63 | GCTGATCC | -0.15 ± 0.062
64 | AAAATATC | 0.0896 ± 0.046
65 | AGAATAAC | 0.0583 ± 0.052
66 | CGGTACAA | -0.199 ± 0.02

Row | Sequence | PBM E-score of 8-mer
67 | AGAAGCCT | -0.158 ± 0.051
68 | CGGTAGAG | 0.0309 ± 0.1
69 | CGGCCCGC | -0.162 ± 0.024
70 | AGGCTGGC | -0.111 ± 0.082
71 | AAACAACG | -0.00585 ± 0.023
72 | AGGCCTTG | -0.325 ± 0.014
73 | GAGGTCGA | -0.0955 ± 0.014
74 | GTGGATAA | 0.0538 ± 0.043
75 | AACAACCT | 0.228 ± 0.017
76 | AGGGTATC | -0.107 ± 0.025
77 | AACACGTC | 0.372 ± 0.009
78 | CGCCAACC | 0.222 ± 0.045
79 | GGTAGAAA | -0.0328 ± 0.017
80 | GCATCTCC | -0.148 ± 0.05
81 | ACACTCTC | 0.3695 ± 0.0036
82 | AGCGAAAC | -0.0989 ± 0.038
83 | CCGCCACA | 0.157 ± 0.021
84 | CTTTTTCC | -0.132 ± 0.081
85 | AGATATAT | -0.0833 ± 0.098
86 | AGTGACCC | 0.0454 ± 0.0085
